# Laboratory results published in the supplement of paper PMC3334620.
# The full ranking holds about 33,000 sequences; the median of “E-score (-0.5 to 0.5)” is about -0.021, and the highest 2% start at about 0.32. The list shows a part of the results.
# Target: T1, Zap1 (UniProt P47043)
# T1 sequence: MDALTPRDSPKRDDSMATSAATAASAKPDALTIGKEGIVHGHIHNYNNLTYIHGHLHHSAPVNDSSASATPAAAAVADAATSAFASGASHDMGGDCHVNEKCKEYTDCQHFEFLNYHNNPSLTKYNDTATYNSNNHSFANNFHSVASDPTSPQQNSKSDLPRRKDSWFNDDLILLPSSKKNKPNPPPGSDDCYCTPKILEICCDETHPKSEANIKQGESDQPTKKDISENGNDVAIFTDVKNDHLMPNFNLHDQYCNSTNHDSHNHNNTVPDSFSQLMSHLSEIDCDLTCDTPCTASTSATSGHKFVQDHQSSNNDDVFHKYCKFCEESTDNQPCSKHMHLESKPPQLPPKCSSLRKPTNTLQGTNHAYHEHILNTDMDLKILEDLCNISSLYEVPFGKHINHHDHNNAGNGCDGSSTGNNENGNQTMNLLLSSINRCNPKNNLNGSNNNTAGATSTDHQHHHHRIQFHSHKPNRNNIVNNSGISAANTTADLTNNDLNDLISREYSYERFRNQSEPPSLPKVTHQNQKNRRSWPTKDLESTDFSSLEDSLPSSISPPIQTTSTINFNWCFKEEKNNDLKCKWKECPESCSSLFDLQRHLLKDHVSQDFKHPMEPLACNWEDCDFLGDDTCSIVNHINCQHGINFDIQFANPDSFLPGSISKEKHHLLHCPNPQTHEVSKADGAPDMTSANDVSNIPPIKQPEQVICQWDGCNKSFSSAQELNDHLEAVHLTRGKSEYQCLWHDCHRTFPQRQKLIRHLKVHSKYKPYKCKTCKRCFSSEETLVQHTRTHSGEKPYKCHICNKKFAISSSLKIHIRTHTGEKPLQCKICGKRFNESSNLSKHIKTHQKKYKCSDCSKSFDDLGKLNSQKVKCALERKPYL
# Experiment: PBM E-score (8-mer binding enrichment) (E-score (-0.5 to 0.5)); higher = stronger / more preferred TF binding; most listed sequences are background and not binding sites
# Settings: protein concentration: 200 nM; construct: GST-full length
# Outline: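 E-scores (a modified Wilcoxon-Mann-Whitney statistic) were assigned by the Universal PBM Analysis Suite to every ungapped eight-base word pooled with its reverse complement. The input came from universal all-10-mer Agilent arrays made double-stranded by primer extension and probed with GST-tagged yeast transcription factors at about 100-200 nM. Fluorescent anti-GST detected bound protein, and masliner normalised the scans.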
row,Sequence,PBM E-score
1,CTGACGAA,0.0738
2,AGAGTCGA,-0.12
3,CCCCACCA,0.119
4,ATGGGATC,-0.0299
5,GCACTGCA,-0.186
6,GACGCTAA,-0.184
7,AGCAAACC,0.166
8,ACGGTCCC,-0.234
9,CGGTCACG,0.203
10,GCCGGCTA,-0.189
11,CAGATCGC,-0.0173
12,AGCGGGAG,-0.105
13,GGGTCACC,0.438
14,ATATCCCC,-0.127
15,AGGGCTAC,-0.0664
16,ATGGGTCC,0.263
17,AGCAGCTC,-0.29
18,CTTGGTCA,0.194
19,GCACGCTA,-0.223
20,CGCTCATC,-0.094
21,GCGGAAGA,-0.0868
22,ATTAGGTG,-0.0772

row,Sequence,PBM E-score
1,ACAGCTAA,-0.174
2,ATCATACA,0.183
3,GAAAAGCC,-0.211
4,GAACAAGC,-0.175
5,ATCATTAG,0.0336
6,ACCTGGTA,0.0815
7,TATGGGCA,0.184
8,CGCGTGTC,-0.0401
9,TGTTTAAA,0.147
10,GCGGCCCC,0.0223
11,ATCTGGAC,-0.182
12,AGGTCAGG,0.141
13,GGATTTCA,0.0789
14,ATTTTAGC,0.0543
15,CGCTGTCC,-0.122
16,CAAAAGTG,0.0344
17,GAGACTCC,-0.223
18,AGGAGAGA,-0.0256
19,GTCAAGTA,-0.144
20,GTCCACTA,0.117
21,AGTAAAAG,0.217
22,AAAGAGTG,-0.208

row,Sequence,PBM E-score
1,CACTGCGC,-0.192
2,CGAAAGTC,-0.0323
3,AACCCAGG,0.26
4,AGTCGGTA,-0.163
5,ATTGCGAA,-0.0714
6,ATCATGCC,-0.14
7,TGGAAGAA,0.0914
8,ACTCTACC,0.11
9,GGTGGTAA,0.274
10,ATAATTAG,0.0731
11,TCCCATCA,-0.23
12,AAAGCGTC,-0.107
13,ACCATGTG,0.1
14,GTACAAAC,0.247
15,GCGTGGAA,-0.174
16,GGCATGTA,-0.0887
17,TATGGTAA,0.231
18,GTAAGAAA,-0.00388
19,CATCCACC,-0.112
20,CCAGACCG,0.0696
21,GTGAGTCA,-0.0169
22,ATTAGTGA,0.173

row,Sequence,PBM E-score
1,CATAACCA,0.462
2,AGCATTGG,-0.237
3,AGCCTCGC,-0.174
4,AACGAGTC,-0.229
5,AGCCCGGC,-0.201
6,AAAGTACT,0.193
7,CCCACAGC,0.00743
8,AACTCGGT,0.128
9,AATGAAAT,0.149
10,TCTCTGAA,-0.0746
11,AGTATCCC,-0.113
12,AACATTGT,-0.0906
13,GCTCTACC,-0.256
14,AAAAAGAA,0.0584
15,ACATGATG,-0.206
16,AATTACGG,0.24
17,ATAGAATC,-0.0515
18,GTTTTTAA,0.219
19,AACCCATA,0.391
20,AGCTCAAC,-0.097
